# According to the supplement of paper PMC3334620:
# The full ranking holds about 33,000 sequences; the median of “E-score (-0.5 to 0.5)” is about -0.013, and the highest 2% start at about 0.3. The list shows a part of the results.
# Target: T1, Msn1 (UniProt P22148)
# T1 sequence: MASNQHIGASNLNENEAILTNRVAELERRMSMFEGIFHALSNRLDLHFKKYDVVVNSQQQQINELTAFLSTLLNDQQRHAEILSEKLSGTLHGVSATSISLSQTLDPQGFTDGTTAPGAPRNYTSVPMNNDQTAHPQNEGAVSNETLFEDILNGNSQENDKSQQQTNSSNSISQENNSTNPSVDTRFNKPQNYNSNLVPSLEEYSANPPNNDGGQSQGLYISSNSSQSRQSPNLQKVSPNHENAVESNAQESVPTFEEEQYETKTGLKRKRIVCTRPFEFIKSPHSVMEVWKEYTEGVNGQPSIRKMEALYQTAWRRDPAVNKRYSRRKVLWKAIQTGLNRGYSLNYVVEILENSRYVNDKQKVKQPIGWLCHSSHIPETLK
# Experiment: PBM E-score (8-mer binding enrichment) (E-score (-0.5 to 0.5)); higher = stronger / more preferred TF binding; most listed sequences are background and not binding sites
# Details: protein concentration: 200 nM; construct: GST-full length
# Procedure, shortened: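 GST-tagged yeast TFs (full-length or DNA-binding domain) were made by PURExpress in vitro transcription/translation and applied at about 100-200 nM to universal all-10-mer Agilent arrays. The arrays were made double-stranded by primer extension, on fresh or once-stripped slides. Bound protein was detected with fluorescent anti-GST, and scans were normalised with masliner. Each ungapped eight-base word, pooled with its reverse complement, received an E-score (modified Wilcoxon-Mann-Whitney statistic) from the Universal PBM Analysis Suite.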
row,Sequence,PBM E-score
1,AAACGCAT,-0.0841
2,CCATCCGA,-0.00896
3,ATTTGACA,0.187
4,ATAATCAA,0.121
5,CCCGACTA,-0.127
6,CGGATAAA,0.12
7,CGCTCTAC,-0.0195
8,ACTTTACA,-0.0742
9,TATTGGAA,-0.0155
10,ATTGCCGG,-0.0182
11,CAGCGCAC,-0.04
12,AGGCTCGG,-0.224
13,GTCTGATA,0.158
14,AGAAACCG,-0.0471
15,GCAGGGGC,-0.233
16,ACAAACGC,0.172
17,CGAACCCG,-0.196
18,CAATAGGA,0.112
19,ACGCCGAA,0.177
20,CGAAACCA,0.147
21,ACCGATAT,-0.0498
22,CATCAATA,0.1
23,AACATTAC,-0.108
24,AAGAGACT,-0.0952
25,CCATTCGG,0.0398

row,Sequence,PBM E-score
1,AACAACAC,-0.00375
2,CTCGGTAA,0.129
3,AGATATCT,0.146
4,ACTAGGGA,0.00908
5,ACTACCAT,0.0464
6,AGATGGGC,-0.168
7,TAGTAATA,0.104
8,AAGCTTAT,0.111
9,AATTAAAC,0.166
10,CACGAATA,0.0663
11,CAAAGTAC,0.0575
12,GCAAGGAA,-0.122
13,AGGCTTAG,-0.0844
14,GCGTCTAC,-0.0433
15,ACCCGTAT,0.0862
16,AGATTCTA,-0.0122
17,ATACTACG,-0.0292
18,AGCGGGCG,-0.0758
19,CAGCCATC,-0.215
20,ACCACTTA,-0.0118
21,GCAGGAGA,-0.266
22,CAGGTCGG,0.01
23,CTTATTGA,0.0963
24,GACCCAGC,-0.279
25,CTATCCGC,0.127

row,Sequence,PBM E-score
1,ATGATAAG,0.00016
2,AATAAGGT,-0.091
3,ACAAGCGT,0.0435
4,ATCTAGGA,0.18
5,ATTCCGCC,0.2
6,CAAACAGA,0.147
7,CGGCTCCA,-0.109
8,ACCAATTC,-0.044
9,CCAGTGCG,-0.278
10,CATGTTGC,-0.195
11,ATCTTTAG,-0.0847
12,CGATGACC,0.0689
13,CGTCCTGC,-0.235
14,ACAGCGAT,-0.1
15,AGTCGCGC,0.191
16,CCACTCGG,-0.112
17,TATACGCA,0.0336
18,CCGATGAC,0.102
19,CTGATGCA,-0.0911
20,ATGAATCC,0.124
21,GCATTCCA,-0.224
22,AAAACTAA,0.251
23,ATGGTGAA,-0.0757
24,CGCGAAAC,0.0633
25,CGTACGTA,-0.141

row,Sequence,PBM E-score
1,AGCGCAGA,-0.035
2,AATATCGA,0.145
3,GTTAAGTA,0.0893
4,CGCATCCC,-0.229
5,CTCATATA,0.0148
6,AAACTATT,0.171
7,GATCCGGC,-0.0512
8,ACGGGCCT,-0.271
9,CACGGGAG,-0.247
10,CAGCCGAA,-0.0187
11,CGCCGGTA,-8e-05
12,CGGTGTGC,-0.248
13,ACGGCTTG,-0.0549
14,ATTCCTAG,0.133
15,GGTTGAGA,-0.0154
16,TAAAAAAA,0.206
17,ACTGTACA,-0.0175
18,CACGCCGC,-0.234
19,CGCCGACA,0.0624
20,AGCGTGTC,0.0384
21,ACTTCTAC,0.0998
22,TATCTGGA,0.0791
23,AACGTGAG,-0.0307
24,AAGGCAGG,-0.208
25,CTATATAA,0.153

row,Sequence,PBM E-score
1,CAGCCAAC,-0.203
2,CGGACCCA,-0.199
3,CAGAACTG,0.0993
4,AATATTCT,0.113
5,AGCGGTAT,0.102
6,AGGTCAAT,-0.00203
7,GTGCATCA,0.0556
8,GGCAGCTA,-0.0328
9,AGAGCGTC,0.052
10,GGCGCTAC,-0.247
11,AAAGGCGA,-0.11
12,CGGATCGA,-0.0456
13,ACACGGTG,-0.0679
14,ATTCAGGC,0.0647
15,CCAACCCA,-0.276
16,ACGACCAT,-0.0215
17,CCACGGTC,-0.251
18,TCGCTGAA,0.027
19,CTACTTCA,-0.0578
20,CGCACCAC,-0.143
21,ATAAGTGG,-0.00696
22,AACGTGCG,-0.0984
23,CGAATTAG,0.225
24,GCGGACTA,0.104
25,GGGTATAC,0.0534

row,Sequence,PBM E-score
1,CACCTTCG,-0.0896
2,ATACATTG,0.159
3,ATGTAGGC,-0.0581
4,AGGCAACA,-0.161
5,AGGCGGAA,0.116
6,GGGCGGTA,-0.245
7,TCGCACAA,0.00785
8,CAAGTGCA,-0.199
9,ATCGTATA,0.0606
10,AATTACAC,-0.0462
11,ATTATAGG,0.176
12,AAACCAAC,-0.0285
13,ACTGACCA,-0.00452
14,ATGGCGGC,-0.0603
15,AAACCTAT,0.166
16,GCAATTAC,-0.121
17,TAATCAAA,0.19
18,CAATAAGG,-0.19
19,CCTCTACG,-0.213
20,GCAGATCA,-0.165
21,CCTCCGGC,-0.185
22,ACCAGGAT,0.116
23,TCCTGACA,0.255
24,CTATATGA,0.114
25,ACACCAAT,0.0822

row,Sequence,PBM E-score
1,ACAACCCT,-0.04
2,ATTTGAAA,0.26
3,ACCGTACG,-0.0654
4,GGATCGAC,-0.051
5,CCAAAGGA,-0.03
6,ACATCAAA,0.0756
7,ATCCGGAT,0.217
8,ATGTCCAG,0.457
9,AGAGATGC,-0.094
10,AGAATTTC,-0.118
11,ATCCGGTA,0.0578
12,GCTTATCC,-0.0619
13,CAATTCGA,0.0373
14,ATGTACAG,0.185
15,CGACGTAG,-0.188
16,CAGTCCAC,-0.236
17,CCAGGTAG,-0.162
18,CTTCAAAG,0.0565
19,ATCAGGAT,0.00197
20,ACCCTAGA,-0.0511
21,CAGTTTTA,0.0909
22,ACTAAAGA,-0.0289
